Experimental data published in PubChem BioAssay AID1460 (National Center for Advancing Translational Sciences (NCATS), 2008).
Values joined by “and” are separate entries in the source; they are usually repeats but may differ in a detail not shown here. Equal values may be shown once. In all, about 270,000 compounds went through this assay and about 5,800 (2.1%) were called active. The inconclusive results got no clear call from the source; some entries with a clear call stand among them for comparison. The call rests on the fitted dose curve; in most records, active means well fitted inhibition curve with a large enough effect; inconclusive means small, poorly fitted or top-dose-only effect; inactive means flat fitted curve, though single readings scatter. A potency beside an inconclusive call is a rough fit, not a confirmed value.

Each compound was assayed against Microtubule-associated protein tau (Homo sapiens) (UniProt P10636) (assay: qHTS for Inhibitors of Tau Fibril Formation, Thioflavin T Binding). Conditions: recombinant tau K18 P301L, heparin-induced fibrillization, ThT fluorescence; series mostly up to 57.4 µM.
How it was run: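 ThT emission at 510 nm, taken 1 hr after adding 30 uM dye, quantifies aggregates formed when 20 uM heparin acts on human tau K18 P301L for 6 hr at 37 C.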
Further: nearly all actives have a fitted effect of over 55% in size.
Potency means the concentration at half of the fitted maximal effect; tags describe the fitted curve by direction and shape.

Chain of UniProt P10636 (P10636 whole entry, looked up): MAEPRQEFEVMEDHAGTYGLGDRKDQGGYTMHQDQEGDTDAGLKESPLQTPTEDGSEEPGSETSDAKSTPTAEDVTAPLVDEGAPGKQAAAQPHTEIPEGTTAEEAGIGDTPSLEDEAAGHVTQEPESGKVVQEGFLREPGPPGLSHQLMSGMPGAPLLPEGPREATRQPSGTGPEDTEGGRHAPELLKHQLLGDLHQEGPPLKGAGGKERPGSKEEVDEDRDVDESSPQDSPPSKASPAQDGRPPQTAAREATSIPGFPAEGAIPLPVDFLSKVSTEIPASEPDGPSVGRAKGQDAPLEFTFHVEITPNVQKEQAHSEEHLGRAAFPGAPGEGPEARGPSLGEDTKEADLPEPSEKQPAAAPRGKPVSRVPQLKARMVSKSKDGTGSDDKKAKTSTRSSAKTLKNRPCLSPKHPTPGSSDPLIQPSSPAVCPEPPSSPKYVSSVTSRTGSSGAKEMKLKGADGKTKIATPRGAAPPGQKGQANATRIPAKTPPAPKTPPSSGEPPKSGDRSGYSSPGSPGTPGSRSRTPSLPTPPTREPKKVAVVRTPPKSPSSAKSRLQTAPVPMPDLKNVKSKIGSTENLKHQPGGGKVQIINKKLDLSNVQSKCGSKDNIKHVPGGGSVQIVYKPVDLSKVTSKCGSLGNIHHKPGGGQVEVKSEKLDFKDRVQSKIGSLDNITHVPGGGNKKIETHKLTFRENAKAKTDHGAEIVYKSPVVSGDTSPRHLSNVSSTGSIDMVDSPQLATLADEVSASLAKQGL

Structure (SMILES) | Potency
Cc1c(N=Nc2c(O)[nH]c(=S)[nH]c2=O)c(=O)n(-c2ccccc2)n1C | inconclusive: 25.1 µM [inhibitor, partial curve]
O=c1oc(Cl)c(Cl)c2ccccc12 | active: 7.08 µM and active: 11.2 µM
O=c1c2ccccc2nc(CSc2ncnc3nc[nH]c23)n1-c1ccccc1Cl | inactive
CC(C)n1cnc2c(C(=O)N[C@H]3CN4CCC3CC4)cc(Cl)cc21 | inactive
Nc1cc(N2CCNCC2)ccc1[N+](=O)[O-] | inconclusive: 17.8 µM [inhibitor, partial curve]
COc1cc2[nH]c(=S)n(-c3ccccc3)c(=O)c2cc1OC | inactive
C/C(=N\NC(=O)c1ccncc1)c1c(O)n(Cc2ccccc2)c(=O)[nH]c1=O | inconclusive: 31.6 µM [inhibitor, single point]
Cc1cc(/C=C2\C(=O)NC(=O)N(c3ccc(Br)cc3)C2=O)c(C)n1C | inconclusive: 39.8 µM [inhibitor, single point]
O=c1c2ccccc2nc(/C=C/c2cccnc2)n1Cc1ccccc1 | inconclusive: 25.1 µM [inhibitor, single point]
CCOC(=O)c1c(-c2ccccc2)oc2ccc(OC(=O)N(C)C)cc12 | inconclusive: 11.2 µM [inhibitor, partial curve]
CC(C)(C)c1ccc(C(=O)Nc2ccc3nc(SCC(=O)N4CCCC4)sc3c2)cc1 | inconclusive: 0.891 µM [inhibitor, full curve]
CC(=O)N1CCN(c2ccc(N=Cc3c(O)n(Cc4ccccc4)c(=O)[nH]c3=O)cc2)CC1 | inconclusive: 17.8 µM [inhibitor, partial curve]
COc1cc(/C=C2\C(=O)NC(=O)N(c3ccccc3)C2=O)cc(OC)c1O | inconclusive: 10 µM [inhibitor, partial curve]
CCOc1cc(/C=C2/C(=O)NC(=O)N(c3ccc(CC)cc3)C2=O)ccc1OC(=O)c1cccs1 | inconclusive: 17.8 µM [inhibitor, partial curve]
CCOc1ccc(NCc2cccn2-c2nnc(N3CCC(C(=O)NC(C)c4ccccc4)CC3)s2)cc1 (stereo unspecified) | inconclusive: 3.98 µM [inhibitor, full curve]
Cc1cccc(N2C(=O)NC(=O)/C(=C\c3cnc(-c4ccccc4)nc3)C2=O)c1 | inactive
Oc1cc(Cl)ccc1Oc1ccc(Cl)cc1Cl | inactive
O=C1/C(=C\c2cc3c(cc2Br)OCO3)N2CCC1CC2 | inactive
CCCCCCC(=O)N/N=C/c1c(O)n(CCCC)c(=S)[nH]c1=O | inconclusive: 17.8 µM [inhibitor, partial curve, poor fit]
COc1cc(C=C2C(=O)NC(=O)NC2=O)ccc1OCc1ccc([N+](=O)[O-])cc1 | inconclusive: 8.91 µM [inhibitor, partial curve]
COc1ccc(-c2c3c(=O)n(C)c(=O)n(C)c3c3n2-c2ccccc2NC3c2ccccc2OC)cc1 (stereo unspecified) | inconclusive: 2.82 µM [inhibitor, full curve]
NC(N)=NCCCCCCCCCCN=C(N)N | inactive

Structure (SMILES) | Potency
CSc1nnc([C@@H](N)Cc2ccccc2)o1 | inactive
N[C@@H](Cc1cc(Br)c(O)c(Br)c1)C(=O)O | inconclusive: 31.6 µM [inhibitor, single point]
CCN(CC)C(=O)c1ccc(NC(=O)COc2ccc([N+](=O)[O-])cc2Cl)cc1 | inconclusive: 7.94 µM [inhibitor, partial curve]
Cc1ccc(C[N+](C)(C)C)o1 | inactive
COc1ccc(/C=C2\C(=O)NC(=O)N(Cc3ccccc3)C2=O)c(OC)c1OC | inactive
CSc1ccccc1C(=O)C1CCCN(Cc2cccc(C)n2)C1 (stereo unspecified) | inconclusive: 28.2 µM [inhibitor, partial curve, poor fit]
CN(C)c1ccc(/C=C2/C(=O)NC(=O)N(Cc3ccco3)C2=O)cc1 | inconclusive: 17.8 µM [inhibitor, partial curve]
COc1ccc2c(c1)CC1(CN2C)C(=O)NC(=O)N(c2ccc(F)cc2)C1=O (stereo unspecified) | inconclusive: 39.8 µM [inhibitor, partial curve]
N/C(=N\N=C\c1ccc(O)cc1O)N[N+](=O)[O-] | inconclusive: 14.1 µM [inhibitor, partial curve]
CCCCC/C=C\C=C\[C@H](CCCCCCCC(=O)O)OO | inactive
O=C1NC(=O)C(=Cc2ccc3ccccc3c2)C(=O)N1 | inconclusive: 3.98 µM [inhibitor, partial curve, poor fit]
Nc1nc2ccc(Cl)cc2c2nc(-c3ccco3)nn12 | inconclusive: 39.8 µM [inhibitor, single point] and inconclusive: 35.5 µM [inhibitor, single point]
Cc1cccc(N2C(=O)NC(=O)C3(Cc4cc(C)ccc4N(C)C3)C2=O)c1 (stereo unspecified) | inconclusive: 31.6 µM [inhibitor, single point]
O=C(NCc1cccnc1)NC1CCCCC1 | inactive
CC(C)(Cc1c[nH]c2ccc(Cl)cc12)NCCOc1ccccc1OCC1CC1 | inconclusive: 39.8 µM [inhibitor, single point] and inconclusive: 20 µM [inhibitor, single point]
Clc1ccc(-c2nc3ccc(Cl)cn3c2CN2CCOCC2)cc1 | inactive
CC[n+]1c(/C=C/C=C/c2ccc(N(C)C)cc2)sc2ccccc21 | active: 1.12 µM
Cn1c(O)c(/C=C2\N=c3ccccc3=C2CCNC(=S)NC2CC2)c(=O)n(C)c1=O | active: 11.2 µM
CC(C)(C)n1cc(C(=O)c2ccc3ccccc3c2O)cn1 | inconclusive: 12.6 µM [inhibitor, partial curve]
Cc1ccc(C)c(N2CCN(c3ncnc4onc(C)c34)CC2)c1 | inconclusive: 14.1 µM [inhibitor, partial curve]
Cc1ccccc1N1C(=O)NC(=O)/C(=C\c2cc(C)n(C)c2C)C1=O | inconclusive: 25.1 µM [inhibitor, partial curve]
CCCCn1c(O)c(C(C)=NCCN2CCCCC2)c(=O)[nH]c1=O | inconclusive: 25.1 µM [inhibitor, single point]

Structure (SMILES) | Potency
CC/C(=N\NC(=O)c1ccccc1O)c1c(O)n(Cc2ccccc2)c(=O)[nH]c1=O | active: 22.4 µM
NC(=S)N/N=C/c1coc2ccccc2c1=O | inconclusive: 35.5 µM [inhibitor, single point]
COC(=O)c1ccc(-c2nc(-c3ccc(Br)o3)no2)cc1 | inconclusive: 35.5 µM [inhibitor, partial curve]
CC1CCN(CC(=O)c2ccccc2Cl)CC1 | inconclusive: 31.6 µM [inhibitor, partial curve]
CN1C(=O)NC(=O)/C(=C/c2ccc([N+](=O)[O-])o2)C1=O | active: 12.6 µM
Cn1c[n+](C)cc1C(O)c1ccccc1 (stereo unspecified) | inactive
CCN(CC)c1ccc(N=Cc2c(O)n(-c3cc(OC)ccc3OC)c(=O)[nH]c2=O)cc1 | inconclusive: 14.1 µM [inhibitor, partial curve]
Cc1cc(C(=O)N=Nc2c(O)n(C)c3ccccc23)c(C)o1 | inconclusive: 2.51 µM [inhibitor, full curve]
Cc1ccc2c(c1)C1CN(C)CCC1N2C(=O)/C(C#N)=C/c1ccc2c(c1)OCO2 (stereo unspecified) | inconclusive: 11.2 µM [inhibitor, partial curve, poor fit]
CNc1ccc(C(=O)CC(O)CCC(C)C2OC(=O)CC(O)CC(=O)CC(O)CC(O)CC(O)CC(O)CC3(O)CC(O)C(C(=O)OC)C(CC(O[C@@H]4OC(C)C(O)C(N)C4O)/C=C/C=C/C=C/C=C/C=C/C=C/C=C/C2C)O3)cc1 (stereo partly specified) | inconclusive: 31.6 µM [inhibitor, partial curve]
Cc1ccc2c(c1)C1CN(C)CCC1N2C(=O)c1ccc(Br)o1 (stereo unspecified) | inactive
COc1ccc(-n2c(/C=C/c3ccc4c(c3)OCO4)nc3ccccc3c2=O)cc1 | inconclusive: 22.4 µM [inhibitor, partial curve]
Cc1[nH]c2ccccc2c1C(=O)CN1CC=C(c2ccccc2)CC1 | inconclusive: 28.2 µM [inhibitor, partial curve]
COc1ccc(CN2CCc3nc(N4CCN(c5ccc(F)cc5)CC4)ncc3C2)c(OC)c1OC | inconclusive: 12.6 µM [inhibitor, partial curve, poor fit]
O=C(COc1ccc(Br)cc1)N1CCN(Cc2ccncc2)CC1 | inconclusive: 10 µM [inhibitor, full curve, poor fit]
Cc1cc([N+](=O)[O-])c(Cl)cc1NC(=O)C(C)C | inactive
Cc1ccc2c(c1)CC1(CN2C)C(=O)NC(=O)N(c2ccc(C)c(C)c2)C1=O (stereo unspecified) | inconclusive: 25.1 µM [inhibitor, partial curve]
Cc1c(N=Cc2c(O)n(Cc3ccco3)c(=O)[nH]c2=O)c(=O)n(-c2ccccc2)n1C | inconclusive: 25.1 µM [inhibitor, single point]
COc1ccc(-c2coc3cc(OC(=O)N4CCOCC4)ccc3c2=O)cc1 | inconclusive: 0.1 µM [inhibitor, full curve, poor fit]
CCCCCCOc1ccc(C(=O)n2cnc(N)n2)cc1 | inconclusive: 20 µM [inhibitor, partial curve]
CC1CCCCN1Cc1c[nH]c2ccccc12 (stereo unspecified) | inconclusive: 15.8 µM [inhibitor, partial curve]
COc1cc(N2CCOCC2)ccc1/C=C1\C(=O)NC(=O)N(C2CCCCC2)C1=O | inconclusive: 10 µM [inhibitor, partial curve]
